From PubChem BioAssay AID1460 (National Center for Advancing Translational Sciences (NCATS), 2008)
Out of some 270,000 compounds screened, about 5,800 (2.1%) were called active. The shares of active, inactive and inconclusive entries below differ from those in the screen. Calls come from the whole dose curve; as a rule, active = well fitted inhibition curve with a large enough effect; inconclusive = small, poorly fitted or top-dose-only effect; inactive = flat fitted curve, though single readings scatter. Potencies of inconclusive entries are doubtful fits and often do not repeat.

target: Microtubule-associated protein tau (Homo sapiens) (UniProt P10636); experiment: qHTS for Inhibitors of Tau Fibril Formation, Thioflavin T Binding; conditions: recombinant tau K18 P301L, heparin-induced fibrillization, ThT fluorescence; series mostly up to 57.4 µM; note: nearly all actives have a fitted effect of over 55% in size
Summary of the method: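 Fibril formation assay: tau K18 P301L at 15 uM with trace Alexa 594 label, heparin inducer 20 uM, pH 7 sodium acetate buffer, 37 C for 6 hr; endpoint ThT signal.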
Potency is the fitted concentration of half-maximal effect; tags give direction and shape of the fitted curve.

Chain of UniProt P10636 (P10636 whole entry, looked up): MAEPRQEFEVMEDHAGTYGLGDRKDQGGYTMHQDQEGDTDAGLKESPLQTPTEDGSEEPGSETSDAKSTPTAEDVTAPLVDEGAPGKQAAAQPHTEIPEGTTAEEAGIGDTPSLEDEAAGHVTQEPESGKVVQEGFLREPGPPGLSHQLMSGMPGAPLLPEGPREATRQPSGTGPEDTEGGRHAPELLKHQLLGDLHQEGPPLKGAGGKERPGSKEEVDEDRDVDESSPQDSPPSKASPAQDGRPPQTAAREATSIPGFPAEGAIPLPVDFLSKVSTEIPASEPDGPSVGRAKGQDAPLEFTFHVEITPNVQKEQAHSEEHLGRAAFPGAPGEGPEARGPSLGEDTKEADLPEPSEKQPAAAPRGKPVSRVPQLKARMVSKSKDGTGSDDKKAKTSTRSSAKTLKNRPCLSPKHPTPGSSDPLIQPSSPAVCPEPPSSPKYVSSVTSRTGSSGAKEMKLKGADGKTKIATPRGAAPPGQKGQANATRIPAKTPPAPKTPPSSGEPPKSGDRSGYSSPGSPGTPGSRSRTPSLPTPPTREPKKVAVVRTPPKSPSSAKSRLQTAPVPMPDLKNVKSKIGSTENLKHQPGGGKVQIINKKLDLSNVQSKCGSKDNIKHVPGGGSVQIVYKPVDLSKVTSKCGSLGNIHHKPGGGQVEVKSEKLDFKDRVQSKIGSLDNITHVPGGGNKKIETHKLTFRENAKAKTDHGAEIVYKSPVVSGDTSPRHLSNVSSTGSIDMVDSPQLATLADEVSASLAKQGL

Q: For `Cc1ccc(-n2nc(C)c3c(C(=O)NCc4ccc(F)cc4)cc(C)nc32)cc1`, which Potency is on record?
A: inactive

Q: For `Cc1ccc2c(C(=O)CN3CCSCC3)c(C)[nH]c2c1`, which Potency is on record?
A: inactive

Q: Which Potency does the source give for `O=c1c2cc(N3CCOCC3)ccc2[nH]c(=S)n1Cc1ccco1` here?
A: inconclusive: 28.2 µM [inhibitor, single point]

Q: How did the Potency turn out when `CCOC(=O)c1c(-c2ccc(C)cc2)cn2ccccc12` was run?
A: inconclusive: 28.2 µM [inhibitor, single point]

Q: `N#Cc1c(NC(=O)CSc2nnc(-c3ccccc3)o2)sc2c1CCCC2` was tested. Which Potency did it give?
A: inconclusive: 10 µM [inhibitor, partial curve]

Q: `CCCOc1ccc(C(=O)N2CCN(c3ccc(NC(=O)CC)cc3Cl)CC2)cc1` was tested. Which Potency did it give?
A: inconclusive: 15.8 µM [inhibitor, partial curve]

Q: With `O=C(COc1ccc([N+](=O)[O-])cc1)Nc1cccc2cccnc12` as the molecule, how does the Potency read?
A: inactive

Q: `Cc1cccc(C)c1Nc1oc(-c2ccccc2)nc1-c1ccccc1F` was tested. Which Potency did it give?
A: inactive

Q: With `COc1ccc(C2/C(=C(\O)c3cc(C)ccc3C)C(=O)C(=O)N2CCN(C)C)cc1OC` (stereo not drawn) as the molecule, how does the Potency read?
A: inactive

Q: With `Cc1cc(=O)oc2cc(OCC3CC(c4ccccc4)=NO3)ccc12` (stereo not drawn) as the molecule, how does the Potency read?
A: inconclusive: 4.47 µM [inhibitor, full curve]

Q: `COc1cccc(-c2nc(CS(=O)(=O)CC(=O)Nc3cc(C)ccc3C)c(C)o2)c1` was tested. Which Potency did it give?
A: inconclusive: 35.5 µM [inhibitor, partial curve, poor fit]

Q: Which Potency does the source give for `CCCN(CCC)c1nc(-c2ccccc2F)nc2ccccc12` here?
A: inconclusive: 3.16 µM [inhibitor, partial curve]

Q: Which Potency does the source give for `CN(C)c1ccccc1C(=O)N1CCCC(C(=O)c2ccc3ccccc3c2)C1` (stereo not drawn) here?
A: inconclusive: 20 µM [inhibitor, partial curve]

Q: For `Cc1cc(OC(C)C)c2c(-c3ccccc3)cc(=O)oc2c1`, which Potency is on record?
A: inactive

Q: How did the Potency turn out when `CCOc1ccc(NC(=O)c2c(NCc3sccc3C)sc3c2CCCCC3)cc1` was run?
A: active: 14.1 µM

Q: `CC(=O)Nc1ccc(NC(=O)CSc2ccc(-c3ccc4c(c3)OCO4)nn2)cc1` was tested. Which Potency did it give?
A: inconclusive: 7.08 µM [inhibitor, partial curve]

Q: With `COc1ccc(NC(=O)Nc2ccccc2C(N)=O)cc1` as the molecule, how does the Potency read?
A: inactive

Q: How did the Potency turn out when `COc1ccc(NC(=O)CCN2C(=O)C3C4CCC(C4)C3C2=O)cc1` (stereo not drawn) was run?
A: inactive

Q: How did the Potency turn out when `CCN(CC)C(=O)CSc1nc2cc3c(cc2c(=O)n1CCCCCC(=O)NCCc1ccc(OC)c(OC)c1)OCO3` was run?
A: inactive

Q: `Cc1cc(F)c(Nc2ncnc3cc(OCc4ccccc4)ccc23)cc1O` was tested. Which Potency did it give?
A: inconclusive: 6.31 µM [inhibitor, partial curve]

Q: How did the Potency turn out when `CCc1cccc(NC(=O)C2CCC(CNS(=O)(=O)c3csc(C(N)=O)c3)CC2)c1` (stereo not drawn) was run?
A: inconclusive: 35.5 µM [activator, single point]

Q: For `COc1ccc(C(=O)CSc2nc3ncccc3[nH]2)cc1OC`, which Potency is on record?
A: inconclusive: 44.7 µM [inhibitor, single point]

Q: For `Cn1c(N)c(C(=O)COC(=O)c2cc(-c3ccco3)nc3ccccc23)c(=O)n(C)c1=O`, which Potency is on record?
A: inconclusive: 15.8 µM [inhibitor, partial curve]

Q: Which Potency does the source give for `Cc1cccc2sc(N(CCN(C)C)C(=O)c3cc(Cl)sc3Cl)nc12` here?
A: inconclusive: 11.2 µM [inhibitor, partial curve]

Q: For `COc1ccc(-c2nn(-c3ccccc3)cc2/C=C/C(=O)O)cc1[N+](=O)[O-]`, which Potency is on record?
A: inconclusive: 1.78 µM [inhibitor, partial curve, poor fit]

Q: How did the Potency turn out when `N#CNc1nc(O)cc(=O)[nH]1` was run?
A: inconclusive: 15.8 µM [inhibitor, partial curve]

Q: `COc1ccc(-c2nc(SCC(=O)c3ccc(OC)c(Br)c3)n[nH]2)cc1` was tested. Which Potency did it give?
A: inconclusive: 0.178 µM [activator, partial curve, poor fit]

Q: `O=C(/C=C/C(=O)N1CCc2ccccc2C1)N1CCc2ccccc2C1` was tested. Which Potency did it give?
A: inconclusive: 15.8 µM [inhibitor, single point]

Q: For `Cc1ccc(OCC(=O)N/N=C/C=C/c2ccco2)cc1C`, which Potency is on record?
A: inconclusive: 14.1 µM [inhibitor, partial curve]

Q: With `CCCCOc1ccc(C2C3CN(C(=O)OCC)CC=C3C(C#N)=C(N)C2(C#N)C#N)cc1OC` (stereo not drawn) as the molecule, how does the Potency read?
A: inconclusive: 14.1 µM [inhibitor, partial curve]

Q: For `O=C(c1ccc(C(=O)N2CCCc3ccccc32)s1)N1CCCc2ccccc21`, which Potency is on record?
A: inconclusive: 44.7 µM [inhibitor, single point]

Q: For `CCC1=NN2C(=N)/C(=C/c3cc(C)n(Cc4ccccc4)c3C)C(=O)N=C2S1`, which Potency is on record?
A: inconclusive: 17.8 µM [inhibitor, partial curve, poor fit]

Q: For `COc1ccc2[nH]c(=O)c(CNc3ccccc3OC)cc2c1`, which Potency is on record?
A: active: 7.94 µM

Q: With `Cc1cc2nc(C)n(CCCNC(=O)Nc3cccc4ccccc34)c2cc1C` as the molecule, how does the Potency read?
A: inconclusive: 22.4 µM [inhibitor, partial curve]

Q: `Cc1ccc(-c2nnc(NCc3ccccc3)c3ccccc23)cc1` was tested. Which Potency did it give?
A: inactive

Q: For `CC(C)[C@@H](N)C(=O)O`, which Potency is on record?
A: inactive

Q: Which Potency does the source give for `Cc1nn(-c2ccc(F)cc2)c(-n2cccc2)c1C(=O)NCCCN1CCN(c2cccc(Cl)c2)CC1` here?
A: inconclusive: 25.1 µM [inhibitor, partial curve, poor fit]

Q: With `CSc1nc(-c2ccccc2)nn1C(=O)c1ccc(C)cc1` as the molecule, how does the Potency read?
A: inconclusive: 20 µM [inhibitor, partial curve]

Q: Which Potency does the source give for `Cc1cc2sc3ccccc3c(=O)c2c(C)c1O` here?
A: inconclusive: 14.1 µM [inhibitor, partial curve]

Q: Which Potency does the source give for `Cn1ncc(Cl)c1C(=O)N/N=C/c1cc2c(cc1[N+](=O)[O-])OCO2` here?
A: inconclusive: 25.1 µM [inhibitor, partial curve]

Q: For `CCN(CC)c1ccc(NC(=O)Cn2nnc(-c3cccc(OC)c3OC)n2)c(C)c1`, which Potency is on record?
A: inconclusive: 35.5 µM [inhibitor, single point]

Q: For `Cn1c(=O)n(C)c2cc([N+](=O)[O-])c(N3CCN(S(=O)(=O)c4ccccc4)CC3)cc21`, which Potency is on record?
A: inconclusive: 35.5 µM [inhibitor, single point]

Q: `CCCOC(=O)/C(=C\C=C\c1ccco1)NC(=O)c1ccccc1` was tested. Which Potency did it give?
A: inconclusive: 35.5 µM [inhibitor, partial curve]
